# Experimental data published in PubChem BioAssay AID588855 (National Center for Advancing Translational Sciences (NCATS), 2011).
# About 5,000 (1.2%) of roughly 410,000 compounds were called active. This list was built around the results that the source calls inconclusive (neither active nor inactive); the mix of calls is not that of the screen. Calls follow the shape of the dose curve; as a rule, active = well fitted inhibition curve with a large enough effect; inconclusive = small, poorly fitted or top-dose-only effect; inactive = no such curve, though single readings can be large or run the other way. A potency beside an inconclusive call is a rough fit, not a confirmed value.
# Assay: qHTS for Inhibitors of TGF-b; also: nearly all actives have a fitted effect of over 65% in size
# Conditions: HepG2 CAGA-GFP TGF-b/SMAD3 reporter, GFP fluorescence, 18 h, TGF-beta stimulated, 500 pg/mL final; series mostly up to 46.1 µM
# In short: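 Inhibition was scored as loss of TGF-beta-induced (500 pg/mL final, 18 hours, 37 degrees C) GFP in HEPG2 cells carrying a CAGA-GFP reporter, in DMEM with 1% FBS. Well GFP was summed per cell; Activity was normalised to unstimulated and stimulated DMSO wells, then concentration-response fitting.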
# Potency is read from the fitted curve at half-maximal effect; tags tell the direction and shape of the fitted curve.
row,SMILES,Potency
1,COc1cc(Cl)c(C)cc1NC(=O)c1cnc(N2CCOCC2)c2ccccc12,"inconclusive: 35.5 µM [inhibitor, single point]"
2,CC(N=C1NS(=O)(=O)c2ccccc21)C(=O)NCCCc1ccccc1 (configuration not stated),"inconclusive: 35.5 µM [inhibitor, single point]"
3,COc1cc(OC)c(OC)cc1CNC(=O)c1cc(S(=O)(=O)N(C)c2ccccc2OC)ccc1C,"inconclusive: 14.1 µM [inhibitor, single point]"
4,O=C(CCc1c[nH]c2ccccc12)NC1CC1,inactive
5,O=C(NC(=S)Nc1ccccc1Br)C1CCC1,"inconclusive: 8.91 µM [inhibitor, partial curve, poor fit]"
6,N=c1c2c(n(Cc3cccc(Cl)c3)c3c1CCC3)CCCC2,"inconclusive: 14.1 µM [inhibitor, single point]"
7,CCN(CC)CCCNC(=O)c1[nH]c2ccccc2c1Sc1ccc(Cl)cc1,"inconclusive: 35.5 µM [inhibitor, single point]"
8,COc1cc(Br)cc(CNc2ccc(F)c([N+](=O)[O-])c2)c1O,"inconclusive: 20 µM [inhibitor, single point]"
9,O=[N+]([O-])c1ccc(O/N=[N+](\[O-])N2CCN(c3ncccn3)CC2)c([N+](=O)[O-])c1,active: 10 µM
10,COc1ccc(C(=O)NC(c2ccc(Cl)cc2)c2cc(Cl)c3cccnc3c2O)cc1 (configuration not stated),"inconclusive: 7.94 µM [inhibitor, partial curve, poor fit]"
11,COc1ccc(C(NC(=O)C2CCN(CCOc3ccc(Cl)cc3)CC2)c2cccs2)cc1 (configuration not stated),"inconclusive: 35.5 µM [inhibitor, single point]"
12,CCc1nnc(NC(=O)c2ncc(Cl)c(Cl)c2Cl)s1,inactive
13,Cc1cc(C)c(CN2CCN(C(=O)Cn3cnc4c(OCc5ccccc5)ncnc43)CC2)c(C)c1,active: 12.6 µM
14,c1nc(NCc2ccc3c(c2)OCO3)c2cc(-c3ccc4c(c3)OCCO4)ccc2n1,"inconclusive: 7.94 µM [inhibitor, partial curve, poor fit]"
15,CC1CCN(C(=O)c2cccc(NC(=O)c3nsc4ccccc34)c2)CC1,"inconclusive: 35.5 µM [inhibitor, single point]"
16,Cc1cc(C)n2cc(CSc3nnnn3-c3ccc(Cl)cc3)nc2n1,"inconclusive: 35.5 µM [inhibitor, partial curve, poor fit]"
17,COCCNC(=O)c1ccc2c(c1)N=C(C)c1cc(C)ccc1S2,active: 2 µM
18,Cc1cccc(C2=NN(c3ccccc3)[C@H](CO)[C@H]2c2ccccc2)c1,"inconclusive: 35.5 µM [inhibitor, single point]"
19,COc1cc(C(=O)c2c(C)c(CCC#N)n3ccccc23)cc(OC)c1OC,inactive
20,CCCCN(CCCC)C(=S)NC(=O)C(C)(C)C,"inconclusive: 35.5 µM [inhibitor, single point]"
21,Cc1cccc(/C=N/NC(=O)c2c(-c3ccccc3)noc2C)c1O,"inconclusive: 3.55 µM [inhibitor, full curve]"
22,COc1ccc2c(CNCc3cccs3)c(C(=O)O)n(Cc3ccccc3F)c2c1,"inconclusive: 11.2 µM [inhibitor, partial curve]"
23,Cc1ccc(/C=C2\SC(=S)N(CCCC(=O)NNC(=O)c3ccccc3O)C2=O)cc1,inactive

row,SMILES,Potency
1,Cc1cc(C)nc(N2CCC(C(=O)NCCc3ccccc3)CC2)n1,inactive
2,CC(NC(=O)Cn1cc([N+](=O)[O-])cn1)c1ccc(C(C)(C)C)cc1 (configuration not stated),"inconclusive: 6.31 µM [inhibitor, partial curve, poor fit]"
3,COc1ccc(CC(=O)N2CCc3cc(OC)c(OC)cc3C2COc2ccc(F)cc2)cc1OC (configuration not stated),inactive
4,COc1cc(OC)cc(C(=O)N[C@H](C(=O)OCc2cc(=O)oc3cc(C)ccc23)C(C)C)c1,"inconclusive: 1.78 µM [inhibitor, full curve]"
5,c1ccc(CN2CCC3(CCCc4ccccc43)CC2)cc1,inactive
6,CCOC(=O)N1CCN(C(=O)c2ccc3c(c2)N=C(C)c2cc(Cl)ccc2S3)CC1,inactive
7,O=C(c1sccc1-c1ccccc1)N1CCN(S(=O)(=O)c2ccccc2)CC1,inactive
8,COC(=O)[C@]1(C)CCC[C@@]2(C)C3CC[C@]4(OC(C)=O)C[C@@]3(CCC21)CC4=O (some centres not stated),inactive
9,Cc1ccc(S(=O)(=O)C(c2ccccc2)c2c(C)noc2C)cc1 (configuration not stated),"inconclusive: 3.98 µM [inhibitor, single point]"
10,CC(=O)c1c(-c2ccccc2)c2ccccc2[nH]c1=O,"inconclusive: 2.82 µM [inhibitor, full curve, poor fit]"
11,CN(C)c1ccc(N=Nc2cccc3ccoc23)cc1,"inconclusive: 0.316 µM [inhibitor, partial curve, poor fit]"
12,Cc1ccc(O)c(-c2cc(C(F)(F)C(F)F)nc(-c3ccccc3)n2)c1,inactive
13,C=CCn1c(SCc2c(F)c(F)c(F)c(F)c2F)nc(O)cc1=O,"inconclusive: 6.31 µM [inhibitor, single point]"
14,COc1ccc(NC(=O)CN2CCC(NC(=O)C3CCCCC3)CC2)c([N+](=O)[O-])c1,inactive
15,COc1ccccc1NC(=O)C(C)OC(=O)CCC1CCCCC1 (configuration not stated),inactive
16,COc1ccc(C(=O)NCCn2cc(SCC(=O)Nc3ccc4c(c3)OCCO4)c3ccccc32)cc1OC,inactive
17,O=C(CN1CCCCC1)Nc1nnc(-c2ccc([N+](=O)[O-])cc2)s1,"inconclusive: 15.8 µM [inhibitor, single point]"
18,CCOC(=O)c1c(Oc2ccc(C(C)=O)cc2)nnc(-c2ccccc2)c1-c1ccccc1,"inconclusive: 25.1 µM [inhibitor, single point]"
19,CCOC(=O)C1=CCN(S(=O)(=O)c2ccccc2Br)C1c1ccc(Br)cc1 (configuration not stated),"inconclusive: 11.2 µM [inhibitor, partial curve, poor fit]"
20,COc1cccc(-c2cc(C(F)(F)F)nc(NCc3ccco3)n2)c1,"inconclusive: 0.282 µM [inhibitor, full curve, poor fit]"
21,CCCc1ccc(Oc2cn[nH]c2-c2ccc(O)cc2O)cc1,"inconclusive: 22.4 µM [inhibitor, single point]"
22,CCN(CC)CCCNC(=O)c1ccc2c(Cl)c3c(nc2c1)CCCC3,active: 12.6 µM
23,CC(C)CC(N=C1NC(C)(C)Cc2ccccc21)C(=O)O (configuration not stated),"inconclusive: 35.5 µM [inhibitor, single point]"

row,SMILES,Potency
1,CC(C)(C)c1ccc(S(=O)(=O)NC(=O)C2(C)CCN2C(=O)Cc2ccc(-c3ccccc3)cc2)cc1 (configuration not stated),"inconclusive: 35.5 µM [inhibitor, single point]"
2,N#Cc1cccc(NC(=O)CCN2C(=O)C3CCCCC3C2=O)c1 (configuration not stated),"inconclusive: 0.891 µM [inhibitor, full curve, poor fit]"
3,O=S(=O)(Nc1cccc(CCc2ccccn2)c1)c1cc(Cl)ccc1Cl,inactive
4,Clc1ccc(-c2csc(N/N=C\c3cccnc3)n2)cc1,"inconclusive: 35.5 µM [inhibitor, single point]"
5,Cc1nn(-c2ccc(N3CCCCC3)nn2)c(C)c1CCC(=O)NCc1ccc(Cl)cc1,inactive
6,C=CCSc1nnc(NC(=O)CSc2nnc(C)s2)s1,"inconclusive: 5.62 µM [inhibitor, single point]"
7,CCc1nc2c(OCc3ccc(Cl)cc3Cl)cccn2c1N(C)C(=O)c1ccccc1F,"inconclusive: 35.5 µM [inhibitor, single point]"
8,Cc1ccc(CCNC(=O)C2CC(c3ccccc3C(F)(F)F)=NO2)cc1 (configuration not stated),"inconclusive: 14.1 µM [inhibitor, single point]"
9,Cc1cccc2c1-c1sc(C(=O)N3CCc4ccccc4C3)cc1CO2,"inconclusive: 35.5 µM [inhibitor, single point]"
10,FC(F)(F)Oc1ccccc1C(c1nnnn1-c1ccc2c(c1)OCCO2)N1CCN(C/C=C/c2ccccc2)CC1 (configuration not stated),"inconclusive: 10 µM [inhibitor, partial curve, poor fit]"
11,CCc1ccc(C(C)NC(=O)C2(C)CC2(Br)Br)cc1 (configuration not stated),inactive
12,C/C=C/c1ccc(O)c(OC)c1,inactive
13,COc1ccc(-c2csc(NC(=O)c3c(C)noc3C)n2)cc1,"inconclusive: 17.8 µM [inhibitor, single point]"
14,C=C(C)CNC(=O)CCc1nnc(C2(c3ccc(Cl)cc3)CCC2)o1,"inconclusive: 31.6 µM [inhibitor, single point]"
15,CCc1ccc(NS(=O)(=O)c2ccc3[nH]cc(C(=O)N(C)Cc4ccco4)c(=O)c3c2)cc1,inactive
16,O=C(NCCCn1ccnc1)c1cccc(S(=O)(=O)Nc2ccc(F)cc2)c1,"inconclusive: 35.5 µM [inhibitor, single point]"
17,Cc1cc(/C=N/n2cnnc2)c(C)n1-c1ccc(Cl)cc1Cl,"inconclusive: 25.1 µM [inhibitor, single point]"
18,O=c1cc(CN2CCOCC2)c2ccc(O)c(O)c2o1,"inconclusive: 22.4 µM [inhibitor, partial curve, poor fit]"
19,CCc1ccc(-c2nc(CN3CCC(C(=O)NCc4ccccc4OC)CC3)c(C)o2)cc1,"inconclusive: 35.5 µM [inhibitor, partial curve, poor fit]"
20,O=C(Nc1nc(-c2ccc3ccccc3c2)cs1)C1CCN(S(=O)(=O)c2cccs2)CC1,"inconclusive: 14.1 µM [inhibitor, partial curve, poor fit]"
21,COc1ccc(OC)c2[nH]c(=O)c(CCNC(=O)c3ccc(S(=O)(=O)N4CCCCC4)cc3)cc12,"inconclusive: 3.55 µM [inhibitor, single point]"
